Assay results taken from the supplement of paper PMC3724861.
The other results are listed elsewhere or left out.

tested on: T1, Caupolican (Caup) homeodomain DNA-binding domain; assay: PBM E-score (8-mer, recovered from the published 9-mer minima) (E-score (dimensionless, -0.5 to 0.5)); Drosophila protein; higher = stronger relative binding preference, active = 0.31 or more
T1 sequence: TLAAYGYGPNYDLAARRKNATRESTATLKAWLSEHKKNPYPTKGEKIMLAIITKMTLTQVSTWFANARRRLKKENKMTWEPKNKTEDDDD
Method in brief: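 Caup's homeodomain DNA-binding domain (residues 214-303) was made by in vitro transcription and translation and applied at 100 nM to custom-designed protein binding microarrays. Each value is an enrichment score that gives relative binding preference for a short DNA word, with higher meaning stronger. The 8-mer values were recovered from published 9-mer scores, each of which was the minimum of its two constituent 8-mer scores. A cutoff of 0.31 marks candidate sites.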

Sequence | PBM E-score
ATCAAGTC | inactive: 0.0937
AGTCTCTG | inactive: -0.0765
ACACACCG | inactive: 0.193
AGAAAATC | inactive: -0.011
AGATCGAT | inactive: 0.0539
ACGATTTC | inactive: 0.106
CAGCGGGA | inactive: -0.198
CGATTTTA | inactive: 0.112
CCGTGAAC | inactive: 0.0199
CGCGAATA | inactive: -0.0265
CAGACGTC | inactive: -0.00226
CAGAAATC | inactive: -0.00258
ACCCACAG | inactive: 0.0192
CCTGGTTC | inactive: -0.0801
CTATGTCC | inactive: 0.193
AAGGTTCT | inactive: -0.082
ACGATCTC | inactive: -0.0606
ATATCGAA | ≥ 0.15
AAGAAAAC | inactive: 0.0287
ATACGGAC | inactive: 0.0687
CTTACACA | inactive: 0.201
GTCACCCA | inactive: -0.0906
AACAGGCA | inactive: 0.129
CGTCGACC | inactive: -0.0713
ATAGCCGC | inactive: -0.171

Sequence | PBM E-score
ACTCCATA | ≥ 0.109
ACGGCGCG | inactive: -0.119
CACCGCAG | inactive: -0.144
GTAGCAAC | inactive: 0.128
CACGTTGG | inactive: 0
CGTTTAGA | inactive: -0.0316
GAGCGCCA | inactive: -0.226
AACTACGC | inactive: 0.0172
AAGACCAG | inactive: -0.0777
CTGGAATA | inactive: 0.0218
ACTGAGTA | inactive: 0.0357
GATATATC | inactive: 0.115
GTCCACAC | inactive: 0.00307
CGTCTGCC | inactive: -0.188
GCTCGGAC | inactive: -0.0309
ATTCTTGC | inactive: -0.0196
CTTGCTCA | inactive: -0.0446
ACATACAT | active: 0.427
AATATGGG | inactive: -0.0176
CGCAGCAC | inactive: -0.216
AGAGCATA | inactive: -0.0187
CGTGGAAA | inactive: 0.00524
ACAGCAAA | inactive: 0.109
ACACCCGG | inactive: -0.00956
AGTTGCAT | inactive: 0.123

Sequence | PBM E-score
ACATTTCA | inactive: 0.207
ATAATGCA | inactive: 0.0643
AATCCCGA | inactive: 0.033
ATAGTTCA | inactive: 0.097
GCCGGAAC | inactive: -0.201
ATCATAGA | inactive: 0.108
TAGCGCTA | inactive: -0.0511
ATCGGTAC | inactive: 0.0373
TATGGGGA | ≥ 0.0166
ACATGCCG | inactive: 0.229
ATCCCAAC | inactive: 0.0432
CAAAACTG | inactive: 0.0889
AAGCGGCT | inactive: -0.12
AAAGTCGT | inactive: 0.0643
ACGAAAAC | inactive: 0.127
CTGGCTTC | inactive: -0.225
CTATCGTC | inactive: 0.0117
CTAGTAAA | inactive: 0.211
ACAGGCGA | inactive: -0.0478
GACCTTCA | inactive: -0.125
ACAGCTCG | inactive: -0.0316
CGACTGCC | inactive: -0.212
ATTAAACG | inactive: 0.191
ATCTCGCA | ≥ 0.00909
TCAGCCAA | inactive: -0.00848

Sequence | PBM E-score
AGAATGCG | inactive: -0.0497
AGCAGCCG | inactive: -0.0931
AATGTGAG | inactive: 0.0877
GTTTAAAA | inactive: 0.112
ATGTCACA | active: 0.39
TGATGGAA | inactive: 0.0727
AAGACTAA | inactive: 0.0516
GAAGCTGC | inactive: -0.163
CCAACTTA | inactive: 0.0269
ATTTCAGG | inactive: -0.075
GCCATTGA | inactive: -0.0207
CGCGTCAC | inactive: -0.00637
CTCTTGGC | inactive: -0.165
CCTTTGAC | inactive: 0.00273
CGAAGGCA | inactive: -0.154
ATGTTGGC | inactive: 0.0994
AAGTGACC | inactive: -0.0168
CGACAGCG | inactive: -0.0431
ACACCCAA | inactive: 0.0475
AGTATCGA | inactive: 0.117
GGACACTA | inactive: 0.0299
AGGCATTG | inactive: -0.0152
GCTAAGGA | inactive: -0.2
ACCCGCCG | inactive: -0.115
CGCACTGA | inactive: -0.0686

Sequence | PBM E-score
ACAGGACA | ≥ 0.223
AAGTTGCT | inactive: -0.068
AGACTAGC | inactive: -0.0746
CTAGCGTA | inactive: -0.0972
ACTTTTGC | inactive: 0.0193
GTACCTAC | inactive: 0.159
CTCACCGA | inactive: -0.103
ACCTGTTA | inactive: 0.222
AGGTGACC | inactive: -0.11
AGCAGCAT | ≥ 0.0509
CGAGCTGA | inactive: -0.103
GGTGTTCA | inactive: 0.192
CCCACACC | inactive: -0.126
GATGTATA | inactive: 0.295
ACTACTCC | inactive: -0.0438
TCCTGGAA | inactive: -0.119
CCTTCACA | inactive: 0.0705
CACGGCGA | inactive: -0.00155
CCAAGGGA | inactive: -0.141
CCGCGTAC | inactive: -0.07
AACTTCTG | inactive: -0.016
ACCGACGC | inactive: -0.088
AATCGAGC | inactive: 0.0234
CTGACGGA | inactive: -0.00167
ACACCAAG | inactive: 0.158

Sequence | PBM E-score
AAGGCTAA | inactive: -0.0978
GATGGAGC | inactive: -0.058
GACTGCCC | inactive: -0.159
AGCGGGAC | inactive: -0.146
GCAGTGGA | inactive: -0.0738
ACACTTAG | inactive: 0.0557
ATGAATCG | inactive: 0.0391
GAAAGCAC | inactive: 0.0573
CACAATGC | inactive: 0.0831
AACCGCCC | inactive: -0.173
GCGTCGTA | inactive: 0.0227
CCTGCAGA | inactive: -0.0882
ATGGAAAC | inactive: 0.0872
CAGACAAA | inactive: 0.106
CACTGGGG | inactive: -0.262
ATACCCGG | inactive: -0.143
GCATAACC | inactive: -0.0492
CAAGAGTC | inactive: -0.0606
ACATTCTG | inactive: 0.103
CCCAGATC | inactive: -0.171
GTTTGTAA | inactive: 0.198
CGCTCCCA | inactive: -0.17
CCTAACTA | inactive: 0.0587
ATAGCCGG | inactive: -0.108
CCTCCATA | inactive: -0.0938

Sequence | PBM E-score
GGCACCCA | inactive: -0.218
CTACACAA | inactive: 0.288
CCCGTAGG | inactive: -0.214
AAAGCGTT | inactive: -0.117
GACAGGGA | inactive: 0.0917
CGAGTTAG | inactive: 0.0397
AATAGTAA | inactive: 0.11
CAGGCGAA | inactive: -0.0547
AGCGGGGG | inactive: -0.28
ACATCATG | inactive: 0.273
CATTCGTA | inactive: 0.132
AGGGGTCA | inactive: -0.0704
TACTCTAA | inactive: 0.0929
GCTGACAC | inactive: 0.115
AAGTTGCC | inactive: -0.119
AAGGCTCA | inactive: -0.107
ATGGCCCG | inactive: -0.24
GCAAATTA | inactive: 0.0975
CCACTGGC | inactive: -0.144
AACGCGCT | inactive: -0.164
AGAGCCCT | inactive: -0.2
TGACGGAA | inactive: 0.0111
AGGCACTG | inactive: -0.0611
CGAAGACA | inactive: 0.0398
CCTGCAAG | inactive: -0.207

Sequence | PBM E-score
ACTGGGAG | inactive: -0.112
GCGATAAA | inactive: -0.0522
CGGCGAGC | inactive: -0.178
GAGCAACA | inactive: 0.0811
CTGGCCTA | inactive: -0.174
GACTAGGA | inactive: 0.126
AGTTACTA | inactive: 0.185
CGATCAAG | inactive: -0.0172
AGGGCTAA | ≥ -0.0555
ACGAGAGC | inactive: -0.111
CTATGACC | inactive: -0.00145
TCGGACCA | inactive: -0.0836
GCGAGATA | inactive: -0.00844
AACTATCG | inactive: 0.0761
CACGGCTA | inactive: 0.00537
CGCTTCAA | inactive: -0.0124
GCGCTTTA | inactive: -0.0789
CCTTTCGA | inactive: -0.0548
ATCTTTTG | inactive: 0.00208
ACTACACG | active: ≥ 0.357
AGTTCTTC | inactive: -0.0988
ACTAAAGC | inactive: 0.0589
AAAGCGTA | inactive: -0.0609
GCACGATA | inactive: 0.0539
TAGATCAA | inactive: 0.104

Sequence | PBM E-score
CACATTAA | inactive: 0.201
CAATCTGG | inactive: -0.0108
AAAGTGAT | inactive: 0.0964
GACCCACC | inactive: -0.229
AACGCTCC | inactive: -0.0296
GATACCCA | inactive: -0.00243
ATCAGGCA | ≥ 0.0206
ACCTCTCT | ≥ -0.0265
AGCCTGAC | inactive: -0.128
GCATGTAA | active: 0.409
ATGATTGG | inactive: 0.0539
GCTACGAA | inactive: 0.0551
AAACAGCC | inactive: 0.0543
ACTCATCC | inactive: 0.0262
CATACCTC | inactive: 0.13
AGCGTTCA | inactive: -0.157
GGCAAACC | inactive: -0.192
GCGGTGAA | inactive: -0.147
CATCGGAC | inactive: -0.0156
AGCTATGA | inactive: -0.0117
AAATCTGA | inactive: 0.105
TAACCTCA | inactive: 0.014
CACGTATA | inactive: 0.0787
ATTAAGCG | inactive: -0.022
